Where a name gives a salt, the structure may show the parent alone. Whole data set: some 2,000 compounds, median “fractional viability relative to vehicle” near 0.92, cut for the lowest 2% near 0.11. The list shows a part of the results.

This assay concerns TYKNU. Description: fractional viability relative to vehicle; TYKNU is a high-grade serous ovarian cancer line; higher = less growth inhibition. The following applies: 72 h, genotype: OPA1 knockout (sgOPA1 #2). Put shortly: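 TYKNU control cells or lentiCRISPRv2 knockout derivatives were plated at 500 cells per well in duplicate into drug-stamped 384-well plates holding a ~2100-compound library at 2 or 10 μM. Culture was in RPMI 1640 with 10% FBS at 37 °C in 5% CO2, with 72 h of drug treatment. Viability was measured by Cell Titer Glo luminescence, and the averaged duplicate treatment wells were normalised to duplicate control wells at the same plate position.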

As for `Cc1c(C(N)=O)cc([N+](=O)[O-])cc1[N+](=O)[O-]` [Dinitolmide], the fractional viability (2uM) is 1.05 and the fractional viability (10uM) turned out to be 0.794.

For `COc1cc(/C=C/C(=O)N2CCC=CC2=O)cc(OC)c1OC` [Piperlongumine], the fractional viability by setting is: (2uM) 0.31; (10uM) 0.085.

For the molecule `CCc1nc(-c2cccc(C)c2)c(-c2ccnc(NC(=O)c3ccccc3)c2)s1`, the fractional viability is, setting by setting: (2uM) 1.05; (10uM) 0.807.

As to `Cc1cccc(C)c1NC(=O)C1CCCCN1C` (centres undefined) [Mepivacaine HCl], the fractional viability by setting is: (2uM) 0.998; (10uM) 0.962.

As for `CN1C(C(=O)Nc2ccccn2)=C(O)c2sccc2S1(=O)=O` [Tenoxicam], the fractional viability is 1.06 (2uM) and 1.09 (10uM).

Regarding `Cc1ncc([N+](=O)[O-])n1CC(O)CCl` (centres undefined) [Ornidazole], the fractional viability by setting is: (2uM) 1.21; (10uM) 1.61.

With `FC(F)(F)c1ccc(CNc2ccc(Cc3c[nH]c4ncc(Cl)cc34)cn2)cn1` [Pexidartinib (PLX3397)], the fractional viability reads like this: (2uM) 0.884; (10uM) 0.953.

In the case of `O=C(Nc1ccccc1)c1ccccc1O` [Salicylanilide], the fractional viability by setting is: (2uM) 0.98; (10uM) 1.04.

With `Cn1c(=O)c2[nH]cnc2n(C)c1=O` [Aminophylline], the fractional viability reads like this: (2uM) 1.04; (10uM) 0.967.

With `CS(=O)(=O)c1ccc(C2=C(c3ccccc3)C(=O)OC2)cc1` [Rofecoxib], the fractional viability is, setting by setting: (2uM) 0.94; (10uM) 1.03.

Regarding `CC(=O)c1cc([N+](=O)[O-])c(Sc2cccc(Cl)c2Cl)s1`, the fractional viability runs as follows: (2uM) 0.895; (10uM) 0.2.

For the molecule `Cc1ccnc2c1NC(=O)c1cccnc1N2C1CC1` [Nevirapine], the fractional viability turned out to be 1.05 (2uM) and 1.14 (10uM).

As to `CN(C)CCC=C1c2ccccc2CCc2ccccc21` [Amitriptyline HCl], the fractional viability was found to be 1.04 (2uM) and 0.895 (10uM).

Turning to `Cc1[nH]c(=O)c(C#N)cc1-c1ccncc1` [Milrinone], the fractional viability (2uM) is 1.06 and the fractional viability (10uM) came out at 0.966.

Consider `CC(C)[C@H](CO)Nc1nc(Nc2cccc(Cl)c2)c2ncn(C(C)C)c2n1` [Purvalanol A], for which the fractional viability is, setting by setting: (2uM) 0.818; (10uM) 0.388.

Take `NC(=O)c1ncn([C@@H]2O[C@H](CO)[C@@H](O)[C@H]2O)n1` [Ribavirin]: the fractional viability reads like this: (2uM) 1.06; (10uM) 0.804.

The molecule `O=C(NCc1ccncc1)C12CC3CC(C1)CC(c1ccc(Cl)cc1)(C3)C2` displayed a fractional viability (2uM) of 1.06 and a fractional viability (10uM) of 0.861.

For the molecule `CCOC(=O)[C@H](CCc1ccccc1)N[C@@H](C)C(=O)N1[C@H](C(=O)O)C[C@@H]2CCC[C@@H]21` [Ramipril], the fractional viability turned out to be 1.04 (2uM) and 0.89 (10uM).

Turning to `Cc1ccc(S(=O)(=O)n2c(N)nc3ccccc32)cc1` [ML130 (Nodinitib-1)], the fractional viability came to 1.22 (2uM) and 0.875 (10uM).

As for `NCC(=O)Nc1ccc(-n2nc(C(F)(F)F)cc2-c2ccc3c(ccc4ccccc43)c2)cc1`, the fractional viability reads like this: (2uM) 0.93; (10uM) 0.174.

In the case of `COc1ccc(-c2nc3cc(C4=NNC(=O)CC4C)ccc3[nH]2)cc1` (centres undefined) [Pimobendan], the fractional viability runs as follows: (2uM) 0.78; (10uM) 0.946.

As for `NS(=O)(=O)c1cc2c(cc1Cl)N=CNS2(=O)=O` [Chlorothiazide], the fractional viability turned out to be 1.1 (2uM) and 1.15 (10uM).

The values above are taken from the supplement of paper PMC5919970.
